According to paper PMC7819943, “Rice protein-binding microarrays: a tool to detect cis-acting elements near promoter regions in rice”:
The list shows a part of the results.

molecular target: T1, OsWOX13 (Oryza sativa, UniProt Q5QMM3 1-267); assay: protein-binding microarray (RPBM); PBS, 2% BSA, 51.3 ng/ul salmon testes DNA, 50 uM zinc acetate, 200 nM TF, 25 C, 1 h; high values mean tight binding; details: protein: recombinant; tags: N-terminal polyhistidine and DsRed monomer fusion (pET32a); label: CyDye5-dUTP incorporated in the synthesized complementary strand; 3' TTTTT single-stranded linker to array surface; dsDNA, one strand shown
T1 sequence: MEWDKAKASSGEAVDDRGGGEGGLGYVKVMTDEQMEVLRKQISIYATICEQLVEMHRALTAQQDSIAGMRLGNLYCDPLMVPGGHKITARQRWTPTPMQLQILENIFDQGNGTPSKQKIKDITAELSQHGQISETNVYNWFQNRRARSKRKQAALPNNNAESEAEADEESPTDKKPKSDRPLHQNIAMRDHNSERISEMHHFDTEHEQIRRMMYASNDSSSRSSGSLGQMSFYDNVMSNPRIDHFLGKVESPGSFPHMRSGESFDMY
Summary of the method: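 Transcription factors were made in E. coli BL21-CodonPlus as N-terminal fusions to a polyhistidine tag and DsRed, then purified on Ni–NTA. After primer extension with Cy5-dUTP and blocking with 2% BSA, a custom Agilent array was exposed for 1 h at 25 °C to 200 nM protein in PBS, 2% BSA, salmon testes DNA and 50 µM zinc acetate. Washed arrays were scanned on an Axon 4000B, and the binding signal is per-feature fluorescence intensity in arbitrary units.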

Sequence | binding signal
ATTCAAATTATTCAAATTTGAATACTTTTGTCTCAAAATTCGGAGTCACCTAGTGCAG | 11000 fluorescence intensity (a.u.)
AATAAATAAATAAATAAATAATAAACTCGATCGGGTCGGGCGGAGTCACCTAGTGCAG | 7460 fluorescence intensity (a.u.)
TGTATCTTGCGCACAATAAATTAACTGGGAATTTGCCTTCCGGAGTCACCTAGTGCAG | 3480 fluorescence intensity (a.u.)
TATTTAATTTTACATATTTTCTTAATAATCGTCTCTAACTCGGAGTCACCTAGTGCAG | 8140 fluorescence intensity (a.u.)
GTTGGATTAGCATATCTTGAGATTGACGAAGTTACCATGGCGGAGTCACCTAGTGCAG | 16800 fluorescence intensity (a.u.)
TGCTTAATTTCCATTGATTCGAACTGTAGTTGCACGCGCGCGGAGTCACCTAGTGCAG | 6300 fluorescence intensity (a.u.)
AACAAGATGGAACTGACAGCTAGATCCTATGTGCAGTTGACGGAGTCACCTAGTGCAG | 3170 fluorescence intensity (a.u.)
TTAAATAAACAGAGTTACATATTATGATAGTTTGCTTAATCGGAGTCACCTAGTGCAG | 14000 fluorescence intensity (a.u.)
GGATGAGTCATTGATTGGGCTAATCTATATCTATACTAATCGGAGTCACCTAGTGCAG | 27400 fluorescence intensity (a.u.)
TTTTGAATAGGAAATCATTTATATGTGTTTCCTTAATTTGCGGAGTCACCTAGTGCAG | 3290 fluorescence intensity (a.u.)
CAGTTAATTTACTTGTGACGTATCGCTGGGAAGTTAATTTCGGAGTCACCTAGTGCAG | 12600 fluorescence intensity (a.u.)
AAACCCAATCCAATCAAGCGGAGCTCGAGCTCCAATCCAGCGGAGTCACCTAGTGCAG | 3780 fluorescence intensity (a.u.)
TCATATTACTGTCTTAATTAATTCATCATGCTGCTGACAGCGGAGTCACCTAGTGCAG | 18500 fluorescence intensity (a.u.)
AATATATGGATAATTGTACTAGATTATCCTATTTCATACACGGAGTCACCTAGTGCAG | 6460 fluorescence intensity (a.u.)
ATAGACTAGATTAATAGTAAACCATCTCAATAGTATGTCTCGGAGTCACCTAGTGCAG | 13600 fluorescence intensity (a.u.)
ACATGCATAATTATCTTTAATTATTTATGAACATATATAGCGGAGTCACCTAGTGCAG | 37900 fluorescence intensity (a.u.)
TTGAATTTAAATTTAAACGTATAGTGCCTTCCCTTTTACGCGGAGTCACCTAGTGCAG | 22900 fluorescence intensity (a.u.)
TCAAATTGAAAGTTTCCAAAATTTTCAAATCTGGACTTGACGGAGTCACCTAGTGCAG | 24600 fluorescence intensity (a.u.)
TGCAGTGATAATTTAGGATTATTTAAGATTTGCACAGTGGCGGAGTCACCTAGTGCAG | 12500 fluorescence intensity (a.u.)
GTCCAAAACGTCAATTATTATAGAACCGGAGGAGTATACGCGGAGTCACCTAGTGCAG | 5860 fluorescence intensity (a.u.)
AATTAATTAGGCTCAAAAGATTCGCCTCGCGATTTCCAGACGGAGTCACCTAGTGCAG | 22200 fluorescence intensity (a.u.)

Sequence | binding signal
AATCTAGTAAATTAGTTATAAAATGAAAGGGCGTTGCATTCGGAGTCACCTAGTGCAG | 3380 fluorescence intensity (a.u.)
CAGCCGTTCAAATTAACATTTCAATTCAATGATTTTGCCCCGGAGTCACCTAGTGCAG | 4190 fluorescence intensity (a.u.)
AGTATTTGATTAGGCACTACCTAATATTATAAATCTACATCGGAGTCACCTAGTGCAG | 17400 fluorescence intensity (a.u.)
TTTGAAATTATTATTTATTTTATTGGTGACTTACTTTATTCGGAGTCACCTAGTGCAG | 4390 fluorescence intensity (a.u.)
CGGCAGATAGATAGCAATTCCGTTAAGAATTTCTTGTTTGCGGAGTCACCTAGTGCAG | 7940 fluorescence intensity (a.u.)
GTAATTAAACTAAATAAGTGCTATAAGTGTTGCTATATTACGGAGTCACCTAGTGCAG | 4340 fluorescence intensity (a.u.)
TAATCTAAATTATTAAATCAGATTACTCTAAACTGGATTACGGAGTCACCTAGTGCAG | 18300 fluorescence intensity (a.u.)
ACTTTGCCTAGATTCTAATTAATTTAAAGAATAAATTTGTCGGAGTCACCTAGTGCAG | 6990 fluorescence intensity (a.u.)
TAGTTGATTAATAGGATTTGTATTGTAAGTGTGATACTGCCGGAGTCACCTAGTGCAG | 42400 fluorescence intensity (a.u.)
AAAGTACAAATTAAATTAACAAGGATATCGATCAAAGTATCGGAGTCACCTAGTGCAG | 5100 fluorescence intensity (a.u.)
AGCCTCAAGGTAGAATCTGATTGAAACGTCTTCACAAGACCGGAGTCACCTAGTGCAG | 8980 fluorescence intensity (a.u.)
GGATTTGATATGATGATCAGCTTCGGTATTGTATAGATATCGGAGTCACCTAGTGCAG | 4250 fluorescence intensity (a.u.)
CGAGCCCACTCCATCCCTTCCCCAGATCGCTCCTTCCCCTCGGAGTCACCTAGTGCAG | 6240 fluorescence intensity (a.u.)
AATTTCAGTTATTTCCTAATTGTATTTCTATGGACTCTATCGGAGTCACCTAGTGCAG | 5780 fluorescence intensity (a.u.)
CGTAATTAGGCTCAAAAGATTCGTCTCGCAATTTATATGCCGGAGTCACCTAGTGCAG | 20100 fluorescence intensity (a.u.)
TATATGAACACACATTGATTATGTATTTGGACAACATGTACGGAGTCACCTAGTGCAG | 3750 fluorescence intensity (a.u.)
CCAATGTCAATTATTCGAGAACGGAGGGAGTATTTGGACTCGGAGTCACCTAGTGCAG | 5230 fluorescence intensity (a.u.)
GAACAAACAGGCTGCCAATAACTGGTCCTGCCCCACGGCCCGGAGTCACCTAGTGCAG | 3460 fluorescence intensity (a.u.)
TGCATACTCTGATTGTACATTCATGTCCATACAGGGGAGTCGGAGTCACCTAGTGCAG | 3170 fluorescence intensity (a.u.)
TTGACTTTTGATTATTCTTCTCGTTGCAAATATAAACTGCCGGAGTCACCTAGTGCAG | 5970 fluorescence intensity (a.u.)
GAGTCCGATAGATTACCAGATTTGCCCTTTGTACTGCTTACGGAGTCACCTAGTGCAG | 5030 fluorescence intensity (a.u.)
